Measured values published in PubChem BioAssay AID2313 (Broad Institute, 2010).
In all, about 22,000 compounds went through this assay and about 460 (2.1%) were called active. The shares of active, inactive and inconclusive entries below differ from those in the screen.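 The calls were made as follows: active = mean inhibition across valid replicates above about 65% (limit read from the data); inconclusive = mean under the limit, yet half or more replicates past it; inactive = the rest.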 Some structures have more than one record in an assay (separate samples or runs), and their calls can disagree.

experiment: Shh-driven Gli reporter inhibition – luminescence, Shh-LIGHT2 cells, Gli-luciferase, primary screen (AID 2313); conditions: 30 h, active compounds read high;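 also: pathway switched on by Shh-conditioned medium diluted 1 in 25 in low serum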

| Structure (SMILES) | inhibition |
| --- | --- |
| O=C1NCN(c2ccccc2)C12CCN(CCCOc1ccc(F)cc1)CC2 | inconclusive: 51% |
| CN1C[C@H](CNC(=O)OCc2ccccc2)C[C@@H]2c3cccc4c3c(cn4C)C[C@H]21 | inactive: 50% |
| COC(=O)C12CC3CC(C(C)O)C1N(CCc1c2[nH]c2cc(OC)ccc12)C3 (configuration not stated) | inactive: -56.9% |
| CN1C(=O)CN=C(c2ccccc2)c2cc(Cl)ccc21 | inactive: 16.1% |
| COc1ccc2c(c1OC)CN1CCc3cc4c(cc3C1C2)OCO4 (configuration not stated) | inactive: -17.8% |
| C[CH2][Hg][S]c1ccccc1C(=O)O | inconclusive: -57% |
| COc1ccc2c(c1OC)C(=O)O[C@H]2[C@H]1c2cc3c(cc2CCN1C)OCO3 | inactive: 53.5% |
| CN1CC[C@@H]2CN3CCc4cccc(c43)[C@@H]2C1 | inconclusive: 48.7% |
| C=C1C(=O)O[C@@H]2[C@H]3C(=C)[C@@H](O)C[C@H]3C(=C)C[C@@H](O)[C@@H]12 | inactive: -10.2% |
| COC[C@H]1OC(=O)c2coc3c2[C@@]1(C)C1=C(C3=O)C2CCC(=O)[C@@]2(C)C[C@H]1OC(C)=O (some centres not stated) | inconclusive: 49.4% |
| CC1=CC2/C=C(\C)CCC(O)C(O)/C=C/C(=O)C23C(=O)NC(CC(C)C)C3C1C (configuration not stated) | active: 71.1% |
| O=C1NC(=O)C(=C/C=C/c2ccccc2)C(=O)N1 | inconclusive: 45.5% |
| CC1(C)C(C(=O)Nc2nccs2)C1(C)C | inactive: -29.8% |
| CC(C)(C)c1cc(C=C(C#N)C#N)cc(Br)c1O | active: 88.1% |
| O=c1c2ccccc2[se]n1-c1ccccc1 | inconclusive: 16.7% |
| N#CC(C#N)=Cc1ccc(O)c(O)c1 | inconclusive: 52.7% |
| C=C(CO)C(=O)O[C@H]1CC(=C)[C@@H]2C[C@H](O)C(=C)[C@@H]2[C@H]2OC(=O)C(=C)[C@@H]21 | active: 89.7% |
| c1ccc(CCCN2CCN(CCOC(c3ccccc3)c3ccccc3)CC2)cc1 | active: 86.4% |
| CN1Cc2c(ccc3c2OCO3)C2C(O)Cc3cc4c(cc3C21)OCO4 (configuration not stated) | active: 82.1% |
| O=C(CCCN1CCC2(CC1)C(=O)N(Cc1cccc(F)c1)CN2c1ccccc1)c1ccc(F)cc1 | inconclusive: 55.8% |
| COc1c(CC=C(C)C)c2c(c3oc(=O)c(-c4ccc(O)cc4)c(O)c13)C=CC(C)(C)O2 | inconclusive: 59.6% |
| N#CC(C#N)=NNc1ccc(OC(F)(F)F)cc1 | active: 82.3% |
| CC(=O)NC1C(OC2OC(CC(O)C3OC(n4ccc(=O)[nH]c4=O)C(O)C3O)C(O)C(O)C2NC(=O)/C=C/CCCCCCCCCC(C)C)OC(CO)C(O)C1O (configuration not stated) | active: 108% |
| COC(=O)c1cc2c(cn1)[nH]c1ccccc12 | inactive: -48% |

| Structure (SMILES) | inhibition |
| --- | --- |
| N[C@H]1C[C@@H]1c1ccccc1 | inconclusive: 61.5% |
| C=C(C)C1Cc2c(ccc3c(=O)c4c(oc23)COc2cc(OC)c(OC)cc2-4)O1 (configuration not stated) | inconclusive: 17.5% |
| Fc1ccc(C(OCCN2CCN(CCCc3ccccc3)CC2)c2ccc(F)cc2)cc1 | active: 67% |
| CCOCN(C(=O)CCl)c1c(C)cccc1CC | active: 79.9% |
| CCCN(CCC)C1CCc2ccc(O)cc2C1 (configuration not stated) | inactive: -40.4% |
| N#CC(O[C@@H]1O[C@H](CO)[C@@H](O)[C@H](O)[C@H]1O)c1ccccc1 (some centres not stated) | inactive: -30.3% |
| CC(C)c1c(CN(C)C(C)Cc2ccccc2)n(C)n(-c2ccccc2)c1=O (configuration not stated) | inactive: -38.5% |
| Cc1c2ccncc2c(C)c2c1[nH]c1ccccc12 | active: 71.4% |
| CN1C(CC(O)c2ccccc2)CCCC1CC(O)c1ccccc1 (configuration not stated) | inconclusive: 49.9% |
| CN1CCc2nc3sc(C(=O)C(C)(C)C)c(N)c3cc2C1 | inconclusive: 58.7% |
| COc1ccc2c(c1)/C(=C/c1cnc[nH]1)C(=O)N2 | inactive: 2.88% |
| COc1ccc(C[C@H]2NC[C@H](O)[C@H]2OC(C)=O)cc1 | active: 107% |
| CC(C)N(C(=O)CCl)c1ccccc1 | active: 70.5% |
| CCCC(=O)O[C@@H]1[C@@H](C)[C@@]2(O)[C@@H](C=C(CO)C[C@]3(O)C(=O)C(C)=C[C@@H]23)[C@@H]2C(C)(C)[C@]12OC(=O)CCC | active: 69.7% |
| COc1cc(C)c(Oc2cc(C)cc(O)c2)c(O)c1 | inactive: -7.34% |
| COc1c2c(c(CC=C(C)C)c3oc(=O)c(-c4ccc(O)cc4)c(O)c13)OC(C)(C)C=C2 | inactive: 23.9% |
| COc1cc(C2c3cc4c(cc3CC3COC(=O)C32)OCO4)cc(OC)c1OC (configuration not stated) | active: 80% |
| O=C1C=C2C=C[C@@H]3C[C@@]2(O1)[C@H]1CCCCN31 | active: 72.1% |
| C/C1=C/[C@@H](C)C/C=C/[C@H]2[C@@H]3O[C@]3(C)[C@@H](C)[C@H]3[C@H](Cc4c[nH]c5ccccc45)NC(=O)[C@]32C(=O)/C=C\C(=O)[C@@H]1O | active: 102% |
| CN(C)Cc1c[nH]c2ccccc12 | inconclusive: 36.5% |
| O=C(O)CCCc1ccc(N(CCCl)CCCl)cc1 | inactive: 9.63% |
| c1ccc2nc(N3CCNCC3)ccc2c1 | inconclusive: 51.5% |
| CCCN(C/C=C/I)C1CCc2ccc(O)cc2C1 (configuration not stated) | inconclusive: 41.5% |
